Source: PubChem BioAssay AID686978 (National Center for Advancing Translational Sciences (NCATS), 2013)
Out of some 420,000 compounds screened, about 64,000 (15%) were called active. Inconclusive results, whose numbers are uncertain, are shown with a selection of clear calls. Calls come from the whole dose curve; as a rule, active = well fitted inhibition curve with a large enough effect; inconclusive = small, poorly fitted or top-dose-only effect; inactive = flat fitted curve, though single readings scatter. Potencies of inconclusive entries are left out as doubtful fits.

Assay: qHTS for Inhibitors of human tyrosyl-DNA phosphodiesterase 1 (TDP1): qHTS in cells in absence of CPT; note: nearly all actives have a fitted effect of over 55% in size
Conditions: DT40 Tdp1-/- hTDP1 cells, no CPT, ATP luminescence, 48 h; activity change, negative = growth inhibition: at 46.2 µM (top of the series) unless noted
In short: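 Growth of hTDP1-complemented DT40 Tdp1-knockout cells is measured by ATP luminescence after at least 48 hr compound exposure at 37 °C, with DMSO substituting for the 20 nM CPT used in the parallel screen.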
% is set by controls: 0 for no effect and ±100 for the full control effect; potency is the fitted concentration of half-maximal effect; tags give direction and shape of the fitted curve.

Structure (SMILES) | Potency | activity change, negative = growth inhibition
COc1ccc2c(c1)CCCC21NC(=O)N(CC(=O)NC(=O)NCc2ccccc2)C1=O (stereo not given) | inconclusive [inhibitor, single point] | 
Cc1cc2[nH]c(=O)c(=O)[nH]c2cc1S(=O)(=O)Nc1cccc(Cl)c1C | inactive | 
CC(=O)c1ccc(N2CCN(S(=O)(=O)c3ccc4c(c3)NC(=O)CO4)CC2)cc1 | inactive | 
O=C(O)CCCN1C(=O)/C(=C\c2ccco2)SC1=S | inactive | 
CCc1nc2oc3ccc(C)cc3c(=O)c2cc1C(=O)OC | inconclusive [inhibitor, single point] | 
CCOC(=O)N1CCC(N2C(=O)c3ccccc3C2Nc2ccc3c(c2)OCCO3)CC1 (stereo not given) |  | inconclusive: -30.8% [inhibitor]
O=C(Nc1ccc(N2CCN(C(=O)C3CC3)CC2)cc1)c1cccs1 | inconclusive [inhibitor, full curve, poor fit] | 
FC(F)(F)c1ccc2c3n(nc2c1)CCN=C3c1ccc(Cl)cc1 | inconclusive [inhibitor, single point] | 
COc1ccc(N(CC(=O)NCCC2=CCCCC2)S(=O)(=O)c2ccccc2F)cc1 | inconclusive [inhibitor, single point] | 
COc1ccc(NS(=O)(=O)c2ccc3oc(SC(C)C(N)=O)nc3c2)cc1 (stereo not given) | active: 11.6 µM | 
CN(C(=O)COc1ccccc1)c1nnc(-c2cccnc2)s1 | inactive | 
COc1cc(SC)ccc1C(=O)N1CCc2ccccc21 | inconclusive [inhibitor, single point] | 
CCOc1ccc2nc(NC(=O)c3nc(SCc4ccccc4C)ncc3Cl)sc2c1 | active: 2.91 µM | 
O=C(CCn1c(=O)oc2ccccc21)NCCCN1CCN(c2ccc(F)cc2)CC1 | inactive | 
Cc1cc(C)cc(NC(=O)N2CCC(CN3CCCCCC3)CC2)c1 | inconclusive [inhibitor, single point] | 
Cc1ccc(-c2cc3nc(-c4ccccc4)cc(N4CCOCC4)n3n2)cc1 | inconclusive [inhibitor, partial curve] | 
COc1cc(NC(=O)COc2ccccc2Cl)ccc1NC(=O)c1cccs1 | inactive | 
CC(=O)c1ccc(NC(=O)CSc2nc3nc(C)cc(C)n3n2)cc1 | inconclusive [inhibitor, single point] | 
O=C(CCC1CCN(C(=O)c2cc(C(F)(F)F)ccc2Cl)CC1)NC1CC1 | inactive | 
Cc1cc(C(O)c2ncc(-c3ccc(Oc4ccccc4)cc3)[nH]2)ccc1F (stereo not given) | inconclusive [inhibitor, partial curve, poor fit] | 
